# The supplement of paper PMC9927326
# MIC of clinical C. albicans isolates, CLSI broth microdilution (ranges and time not stated); higher = less susceptible. Call: susceptible or wild type [S] / resistant or non-wild type [R] by CLSI breakpoints or epidemiological cut-offs; intermediate and dose-dependent carry no call here (the paper groups them with resistant). '<=' and '>=' mark each drug's lowest and highest value, inferred; the source prints them plain. Isolates are numbered anew.
# Experiments:
# Test in all cases: CLSI broth microdilution.
# itraconazole = compound: CCC(C)n1ncn(-c2ccc(N3CCN(c4ccc(OCC5COC(Cn6cncn6)(c6ccc(Cl)cc6Cl)O5)cc4)CC3)cc2)c1=O [itraconazole]
# posaconazole = compound: CC[C@@H]([C@H](C)O)n1ncn(-c2ccc(N3CCN(c4ccc(OC[C@@H]5CO[C@@](Cn6cncn6)(c6ccc(F)cc6F)C5)cc4)CC3)cc2)c1=O [posaconazole]
# micafungin = compound: CCCCCOc1ccc(-c2cc(-c3ccc(C(=O)N[C@H]4C[C@@H](O)[C@@H](O)NC(=O)[C@@H]5[C@@H](O)[C@@H](C)CN5C(=O)[C@H]([C@H](O)CC(N)=O)NC(=O)[C@H]([C@H](O)[C@@H](O)c5ccc(O)c(OS(=O)(=O)O)c5)NC(=O)[C@@H]5C[C@@H](O)CN5C(=O)[C@H]([C@@H](C)O)NC4=O)cc3)no2)cc1 [micafungin]
# fluconazole = compound: OC(Cn1cncn1)(Cn1cncn1)c1ccc(F)cc1F [fluconazole]
# voriconazole = compound: C[C@@H](c1ncncc1F)[C@](O)(Cn1cncn1)c1ccc(F)cc1F [voriconazole]
# caspofungin = compound: CC[C@H](C)C[C@H](C)CCCCCCCCC(=O)N[C@H]1C[C@@H](O)[C@@H](NCCN)NC(=O)[C@@H]2[C@@H](O)CCN2C(=O)[C@H]([C@H](O)CCN)NC(=O)[C@H]([C@H](O)[C@@H](O)c2ccc(O)cc2)NC(=O)[C@@H]2C[C@@H](O)CN2C(=O)[C@H]([C@@H](C)O)NC1=O [caspofungin]
# flucytosine = compound: Nc1[nH]c(=O)ncc1F [flucytosine]
# amphotericin B = compound: C[C@@H]1[C@H](O)[C@@H](C)/C=C/C=C/C=C/C=C/C=C/C=C/C=C/[C@H](O[C@@H]2O[C@H](C)[C@@H](O)[C@H](N)[C@@H]2O)C[C@@H]2O[C@](O)(C[C@@H](O)C[C@@H](O)[C@H](O)CC[C@@H](O)C[C@@H](O)CC(=O)O[C@H]1C)C[C@H](O)[C@H]2C(=O)O [amphotericin B]
# anidulafungin = compound: CCCCCOc1ccc(-c2ccc(-c3ccc(C(=O)N[C@H]4C[C@@H](O)[C@@H](O)NC(=O)[C@@H]5[C@@H](O)[C@@H](C)CN5C(=O)[C@H]([C@@H](C)O)NC(=O)[C@H]([C@H](O)[C@@H](O)c5ccc(O)cc5)NC(=O)[C@@H]5C[C@@H](O)CN5C(=O)[C@H]([C@@H](C)O)NC4=O)cc3)cc2)cc1 [anidulafungin]
Test System,MIC (itraconazole),MIC (posaconazole),MIC (micafungin),MIC (fluconazole),MIC (voriconazole),MIC (caspofungin),MIC (flucytosine),MIC (amphotericin B),MIC (anidulafungin)
"Candida albicans isolate 93 (Erg11p: V437I,E266D, Fur1p: WT, Tac1p: F189S,N174D,M170I,A90T,K87N)",0.03 mg/L [S],0.015 mg/L [S],0.015 mg/L [S],0.25 mg/L [S],≤ 0.008 mg/L [S],0.06 mg/L [S],≤ 0.06 mg/L [S],0.5 mg/L [S],0.03 mg/L [S]
"Candida albicans isolate 141 (Erg11p: E266D, Fur1p: WT, Tac1p: N896S)",≥ 16 mg/L [R],≥ 8 mg/L [R],≤ 0.008 mg/L [S],≥ 256 mg/L [R],≥ 8 mg/L [R],0.03 mg/L [S],≤ 0.06 mg/L [S],0.5 mg/L [S],≤ 0.015 mg/L [S]
"Candida albicans isolate 55 (Erg11p: WT, Fur1p: WT, Tac1p: N896S)",0.03 mg/L [S],0.015 mg/L [S],≤ 0.008 mg/L [S],≤ 0.12 mg/L [S],≤ 0.008 mg/L [S],0.03 mg/L [S],≤ 0.06 mg/L [S],0.5 mg/L [S],0.06 mg/L [S]
"Candida albicans isolate 63 (Erg11p: Y132H,T123I, Fur1p: R101C, Tac1p: WT)",0.12 mg/L [S],0.06 mg/L [S],≤ 0.008 mg/L [S],4 µg/mL,0.5 µg/mL,0.015 mg/L [S],0.5 mg/L [S],0.5 mg/L [S],≤ 0.015 mg/L [S]
"Candida albicans isolate 163 (Erg11p: D153E, Fur1p: WT, Tac1p: I558V,A377V,F189S,I60V)",≤ 0.015 mg/L [S],0.015 mg/L [S],0.015 mg/L [S],0.25 mg/L [S],≤ 0.008 mg/L [S],0.03 mg/L [S],≤ 0.06 mg/L [S],0.25 mg/L [S],0.03 mg/L [S]
"Candida albicans isolate 209 (Erg11p: WT, Fur1p: WT, Tac1p: I558V,A377V,F189S,N174D,M170I,K87N)",≤ 0.015 mg/L [S],0.015 mg/L [S],≤ 0.008 mg/L [S],0.25 mg/L [S],≤ 0.008 mg/L [S],0.03 mg/L [S],≤ 0.06 mg/L [S],0.5 mg/L [S],0.06 mg/L [S]
"Candida albicans isolate 193 (Erg11p: E266D,G129A, Fur1p: WT, Tac1p: R869Q,L695F,I558V,A377V,F189S,M170V,L131I)",0.06 mg/L [S],0.03 mg/L [S],≤ 0.008 mg/L [S],1 mg/L [S],0.015 mg/L [S],0.03 mg/L [S],≤ 0.06 mg/L [S],0.5 mg/L [S],≤ 0.015 mg/L [S]
"Candida albicans isolate 73 (Erg11p: V488I,E266D, Fur1p: WT, Tac1p: N896S,M170V,S108N)",≤ 0.015 mg/L [S],≤ 0.008 mg/L [S],0.015 mg/L [S],0.5 mg/L [S],≤ 0.008 mg/L [S],0.015 mg/L [S],≤ 0.06 mg/L [S],0.5 mg/L [S],0.03 mg/L [S]
"Candida albicans isolate 172 (Erg11p: E266D,G129A, Fur1p: WT, Tac1p: R869Q,L695F,I558V,A377V,F189S,M170V,L131I)",0.06 mg/L [S],0.03 mg/L [S],0.015 mg/L [S],0.5 mg/L [S],≤ 0.008 mg/L [S],0.12 mg/L [S],≤ 0.06 mg/L [S],0.5 mg/L [S],0.06 mg/L [S]
"Candida albicans isolate 324 (Erg11p: WT, Fur1p: WT, Tac1p: N896S)",0.03 mg/L [S],0.015 mg/L [S],0.015 mg/L [S],0.25 mg/L [S],≤ 0.008 mg/L [S],0.03 mg/L [S],≤ 0.06 mg/L [S],0.25 mg/L [S],0.06 mg/L [S]
"Candida albicans isolate 349 (Erg11p: E266D, Fur1p: WT, Tac1p: I558V,A377V,F189S,N174D,M170I,K87N)",0.06 mg/L [S],0.03 mg/L [S],≤ 0.008 mg/L [S],0.5 mg/L [S],≤ 0.008 mg/L [S],0.03 mg/L [S],≤ 0.06 mg/L [S],1 mg/L [S],0.06 mg/L [S]
"Candida albicans isolate 190 (Erg11p: S405F,Y132H, Fur1p: WT, Tac1p: A377V,F189S,N174D,M170I,K87N)",0.12 mg/L [S],0.06 mg/L [S],0.015 mg/L [S],64 mg/L [R],0.5 µg/mL,0.06 mg/L [S],≤ 0.06 mg/L [S],0.5 mg/L [S],0.12 mg/L [S]
"Candida albicans isolate 359 (Erg11p: WT, Fur1p: WT, Tac1p: I558V,A377V,F189S,N174D,M170I,K87N)",0.03 mg/L [S],0.015 mg/L [S],0.015 mg/L [S],0.25 mg/L [S],≤ 0.008 mg/L [S],0.06 mg/L [S],≤ 0.06 mg/L [S],0.5 mg/L [S],0.03 mg/L [S]
"Candida albicans isolate 87 (Erg11p: E266D,D153E, Fur1p: WT, Tac1p: 558V,A377V,F189S)",0.03 mg/L [S],0.03 mg/L [S],≤ 0.008 mg/L [S],0.25 mg/L [S],≤ 0.008 mg/L [S],0.03 mg/L [S],≤ 0.06 mg/L [S],0.5 mg/L [S],0.03 mg/L [S]
"Candida albicans isolate 56 (Erg11p: WT, Fur1p: WT, Tac1p: N896S)",0.03 mg/L [S],0.03 mg/L [S],≤ 0.008 mg/L [S],0.25 mg/L [S],≤ 0.008 mg/L [S],0.03 mg/L [S],0.12 mg/L [S],0.5 mg/L [S],≤ 0.015 mg/L [S]
"Candida albicans isolate 115 (Erg11p: V488I,E266D, Fur1p: WT, Tac1p: M170V,S108N)",0.03 mg/L [S],0.03 mg/L [S],0.015 mg/L [S],0.25 mg/L [S],≤ 0.008 mg/L [S],0.03 mg/L [S],≤ 0.06 mg/L [S],1 mg/L [S],0.03 mg/L [S]
